Among all 310,000 compounds or so, about 2,200 (0.71%) showed an effect of 50% or more. The effect is printed as a negative number. The list shows a part of the results.
Target: human ether-à-go-go-related gene (hERG) potassium channel (human, UniProt Q12809)
Assay: primary screen, population patch clamp on CHO cells stably expressing hERG

Chain of human ether-à-go-go-related gene (hERG) potassium channel (Q12809 whole entry, looked up): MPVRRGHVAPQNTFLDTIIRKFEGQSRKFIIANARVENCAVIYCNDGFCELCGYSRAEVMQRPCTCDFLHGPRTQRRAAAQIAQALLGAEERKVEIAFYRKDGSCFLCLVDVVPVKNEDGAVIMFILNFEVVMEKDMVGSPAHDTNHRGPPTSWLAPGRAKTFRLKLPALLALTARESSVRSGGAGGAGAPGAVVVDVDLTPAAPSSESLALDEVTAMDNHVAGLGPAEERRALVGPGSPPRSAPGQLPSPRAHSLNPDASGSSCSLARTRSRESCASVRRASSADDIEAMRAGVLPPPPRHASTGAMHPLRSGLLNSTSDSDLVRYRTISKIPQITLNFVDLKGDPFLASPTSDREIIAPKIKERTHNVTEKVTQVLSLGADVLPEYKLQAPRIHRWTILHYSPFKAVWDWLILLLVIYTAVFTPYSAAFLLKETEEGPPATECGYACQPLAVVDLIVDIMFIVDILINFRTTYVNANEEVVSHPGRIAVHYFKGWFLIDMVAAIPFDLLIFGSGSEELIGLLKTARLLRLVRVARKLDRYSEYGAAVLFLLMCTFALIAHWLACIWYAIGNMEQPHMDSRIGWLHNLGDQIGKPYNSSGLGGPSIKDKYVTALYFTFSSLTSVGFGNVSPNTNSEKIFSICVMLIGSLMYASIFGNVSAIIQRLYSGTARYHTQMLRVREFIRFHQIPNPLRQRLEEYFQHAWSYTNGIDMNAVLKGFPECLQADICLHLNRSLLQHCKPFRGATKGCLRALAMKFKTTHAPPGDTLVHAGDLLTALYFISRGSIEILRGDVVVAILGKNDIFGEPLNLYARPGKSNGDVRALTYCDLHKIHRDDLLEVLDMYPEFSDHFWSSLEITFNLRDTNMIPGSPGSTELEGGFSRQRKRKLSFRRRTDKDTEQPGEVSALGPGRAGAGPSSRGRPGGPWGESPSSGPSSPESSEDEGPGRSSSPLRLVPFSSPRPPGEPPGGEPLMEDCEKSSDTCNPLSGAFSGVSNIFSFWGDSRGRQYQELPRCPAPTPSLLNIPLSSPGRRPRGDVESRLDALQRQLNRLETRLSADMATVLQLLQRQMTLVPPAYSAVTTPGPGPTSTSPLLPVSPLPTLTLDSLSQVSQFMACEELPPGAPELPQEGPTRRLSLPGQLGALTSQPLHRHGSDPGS

| SMILES | hERG current change (%, negative = inhibition) at 1uM [%] |
| --- | --- |
| Cc1nnc(SCC(=O)Nc2ccc3c4c(cccc24)CC3)n1C | 12.8 |
| CCCCC(=O)NC(=S)Nc1ccccc1N1CCCCC1 | -4.41 |
| CC(=O)c1ccc(Nc2c3c(c(C#N)c4nc5ccccc5n24)CCC3)cc1 | -67 |
| CSCCC(NS(=O)(=O)c1ccc(C)cc1)C(=O)NC1CCCCCC1 (centres unmarked) | 17.1 |
| COc1cc(OC)c(C(=O)Nc2ccc3ccccc3c2)cc1OC | 13.9 |
| Cc1ccc(S(=O)(=O)N2CCC(C(N)=O)CC2)cc1C(=O)NC1CCCCC1 | 16.1 |
| CCOC(=O)N1CCN(C(=O)CCCCCn2c(=S)[nH]c3cc4c(cc3c2=O)OCO4)CC1 | 15.5 |
| Cc1ccccc1NC(=O)CCCn1nc(C)c2c(C)n(-c3ccccc3)nc2c1=O | 8.71 |
| Cn1c2ccccc2c2cc(C(=O)NNS(=O)(=O)c3ccc(F)cc3)sc21 | 11.3 |
| COC(=O)N/N=C/c1cc(C)n(-c2ccc(F)cc2)c1C | 9.65 |
| CC(=O)Nc1ccc(S(=O)(=O)N2CCC(C(=O)NC3CC3)CC2)cc1 | 15.6 |
| O=C(CCN1C(=O)/C(=C/c2ccc(Cl)cc2)SC1=S)Nc1cccc(C(=O)O)c1 | 8.72 |
| CC(C)[C@H](NC(=O)c1cccc(CN(Cc2ccccc2)C(=O)c2ccccc2)c1)C(=O)O | 11.1 |
| Cc1ccc(OCCNC(=O)c2cncc(Br)c2)cc1C | 9.65 |
| COc1cc(C2CC(=O)Nc3n[nH]c(-c4ccccc4)c32)cc(OC)c1OC (centres unmarked) | 8.7 |
| CCOc1ccc(N2C(=O)/C(=C/c3ccc(C)o3)N(C)C2=S)cc1 | 12.1 |
| CCOC(=O)N1CCN(C(=O)Cc2ccccc2[N+](=O)[O-])CC1 | 10.7 |
| CCc1ccccc1NC(=O)Nc1c(C)n(C)n(-c2ccccc2)c1=O | -14.2 |
| Cc1ccc(NS(=O)(=O)c2ccc(NC(=O)c3ccccc3C(=O)O)cc2)cc1C | 5.97 |
| COc1cc(CN2CCN(Cc3cn(C)c4ccccc34)CC2CCO)cc(OC)c1 (centres unmarked) | -4.71 |
| CCOC(=O)CNC(=O)c1c(C)nn(C)c1Cl | -0.599 |
| CSc1nsc(SCC(=O)NCc2ccccc2)n1 | 13.1 |
| Cc1ccc(Cn2nnc3c(=O)n(CC(=O)N4CCN(c5ccccc5)CC4)cnc32)cc1 | 10.6 |

| SMILES | hERG current change (%, negative = inhibition) at 1uM [%] |
| --- | --- |
| Cc1ccc2[nH]c3c(c2c1)CC/C(=C/c1ccccc1)C3=O | 9.35 |
| COc1cccc(OC)c1OCCCCN1CCCC1 | 4.67 |
| COc1ccc(S(=O)(=O)N2CCSC2C)cc1C (centres unmarked) | 12 |
| COc1ccc(OCCC(=O)OCC(=O)NC2CCCCCCC2)cc1 | 1.17 |
| Nn1cc(-c2ccccc2)nc1SCC(=O)Nc1cccc(S(N)(=O)=O)c1 | 12.6 |
| O=C(CSc1cccc2cccnc12)Nc1cccc(S(=O)(=O)N2CCOCC2)c1 | 9.24 |
| c1ccc(-c2nn3c(C4CCCCC4)nnc3s2)cc1 | 0.449 |
| COc1ccc2c(c1)-c1c(sn(-c3ccccc3)c1=S)C(C)(C)N2 | 7.19 |
| Nc1nc2ccccc2cc1S(=O)(=O)c1ccccc1 | 14.1 |
| O=C(NOCc1ccccc1)c1ccc(Cl)cc1 | -0.363 |
| Cc1cc(C)c2c(n1)sc1c(N3CCN(CCO)CC3)ncnc12 | 14.9 |
| Cc1ccc(-c2cc(-c3ccco3)c(C#N)c(=O)[nH]2)cc1 | 13.1 |
| Cc1ccc(NC(=O)COC(=O)c2nn(C)cc2Cl)cc1 | -3.33 |
| Cn1cc([N+](=O)[O-])c(C(=O)Nc2cc(Oc3ccccc3)cc([N+](=O)[O-])c2)n1 | 4.95 |
| COC(=O)C1CC(O)CN1C(=O)Nc1ccccc1 (centres unmarked) | 7.28 |
| Cn1c(CC(=O)Nc2ccccc2Cl)nnc1SCC(=O)NC1CCCCC1 | 17.6 |
| Cl.OC(c1ccc(Cl)cc1)C(CN1CCOCC1)c1ccccc1 (centres unmarked) | 8.75 |
| COc1ccc(NC(=O)CNCCC2=CCCCC2)cc1 | 14.6 |
| Cc1c(C)n(C(=O)CN2CCN(c3ccccn3)CC2)c2ccccc12 | 4.72 |
| Cc1ccc(NC(=O)C2CCCN2S(=O)(=O)c2cccc3cccnc23)c(C)c1 (centres unmarked) | 14.1 |
| Brc1ccc(C[n+]2ccccc2)cc1.[Br-] | 3.75 |
| CCCCOc1ccccc1C1C(C(N)=O)=C(C)Nc2nnnn21 (centres unmarked) | 20.1 |
| CN1C(=O)N(C)C2C1NC(=O)N2C (centres unmarked) | 0.927 |

| SMILES | hERG current change (%, negative = inhibition) at 1uM [%] |
| --- | --- |
| COc1ccc(OC)c(N(CC(=O)Nc2ccccc2C(=O)NCc2ccco2)S(C)(=O)=O)c1 | 7.06 |
| Cc1cc(C)nc(N2CCCC(C(=O)NCc3cccs3)C2)n1 (centres unmarked) | 10.4 |
| Cc1ccc(C2=NS(=O)(=O)N(C)C(C(=O)NCc3ccc(F)cc3)=C2)cc1 | -15.9 |
| CCOc1cc(Br)cc(C(c2c(C(=O)O)[nH]c3ccccc23)c2c(C(=O)O)[nH]c3ccccc23)c1O | 13.5 |
| O=C(COc1cccc(Br)c1)N/N=C1\CCCc2ccccc21 | 10.5 |
| O=[N+]([O-])c1ccccc1Oc1ccccc1Cl | 6.14 |
| O=C1C(Cc2cccc([N+](=O)[O-])c2)SC(=Nc2ccccc2)N1c1ccccc1 (centres unmarked) | 14.5 |
| CCOc1ccc(N/C=C/C(=O)c2ccc3ccccc3c2)c([N+](=O)[O-])c1 | 1.46 |
| CNC(C)C(=O)NC(C(=O)N1CCCC1C(=O)Nc1ccc2ncccc2c1)C(C)C.O=CO (centres unmarked) | 10.1 |
| NC(=O)COC(=O)/C=C/c1ccccc1[N+](=O)[O-] | 6.93 |
| O=C(COc1ccccc1O)N1CCN(C(=O)c2ccco2)CC1 | -3.21 |
| Cc1ccc(Nc2ncc(C(=O)NCCCN3CCN(C)CC3)c3ccccc23)cc1Cl | -7.58 |
| Cc1cc(C(=O)COC(=O)C2=NNC(=O)CC2)c(C)n1-c1ccc(OC(F)F)cc1 | -6.14 |
| COc1ccc(NS(=O)(=O)c2ccc3ccccc3c2)c2ncccc12 | 11.9 |
| CNC(=S)Nc1ccc2[nH]c(=O)[nH]c2c1 | 17.9 |
| C/C(N)=C(/C#N)C(=O)COC(=O)c1cccc2ccccc12 | 1.84 |
| CC(C)Nc1nc(C#N)nc(NC(C)C)n1 | 19.8 |
| COc1ccc(NC(=O)Nc2nnc(Cc3ccc(F)cc3)s2)cc1 | 17 |
| CCn1nnnc1-c1ccc(OC)c(S(=O)(=O)NCCc2ccccc2)c1 | 6.8 |
| Cc1ccc(S(=O)(=O)NCCSc2ccccc2)cc1[N+](=O)[O-] | 7.44 |
| CCC(=O)N1CCc2cc(S(=O)(=O)CCC(=O)Nc3nc(C)cs3)ccc21 | 7.89 |
| Cc1cc(F)c(F)c(C(=O)N2C(C)CCCC2C)c1Cl (centres unmarked) | 6.46 |
| CCCCC(=O)Nc1cc(N(C)C)nc2ccccc12 | -30.7 |

| SMILES | hERG current change (%, negative = inhibition) at 1uM [%] |
| --- | --- |
| CCOC(=O)c1c(C)n(C)c2c1cc(OC(C)=O)c1ccccc12 | 13.8 |
| Clc1ccccc1CSc1nc2ccncc2[nH]1 | 6.59 |
| COc1ccccc1C1=NOC(COC(=O)c2ccc([N+](=O)[O-])cc2)C1 (centres unmarked) | 3.07 |
| Cc1ccc(CNC(=O)CCC2CCCN(C(=O)CCC(F)(F)F)C2)o1 (centres unmarked) | 11 |
| COc1cccc(NC(=O)C2Cc3ccccc3CN2C(=O)c2ccco2)c1 (centres unmarked) | 6.42 |
| C[C@@H]1C=CC(=O)O[C@@H]1c1ccc(Cl)cc1 | 9.25 |
| CCOC(=O)c1ccc(S(=O)(=O)NCC(C)(C)N2CCOCC2)cc1.Cl | 6.6 |
| O=C(CCCN1C(=O)CCC1=O)Nc1ccc(Br)cc1F | -2.6 |
| NC(=S)NNC(=O)Nc1cccc(Cl)c1 | 14.2 |
| COc1ccc(C(C)(C)NC(=O)C2CCC(=O)N(C3CC3)C2)cc1OC (centres unmarked) | 15.6 |
| O=C1C=C(O)C(n2cncn2)C(c2ccc(F)cc2)C1 (centres unmarked) | -9.66 |
| c1ccc(-c2onc(-c3ccco3)c2-c2ccc3c(c2)OCO3)cc1 | 7.39 |
| CCCCc1nnc(NC(=O)C2=COCCO2)s1 | 9.73 |
| CCNC(=S)N1CCC(c2nc3cc(C)c(C)cc3[nH]2)CC1.O=C(O)C(=O)O | 7.77 |
| C=C[C@@H]1c2cc(C)ccc2N(S(=O)(=O)c2ccc(C)cc2)[C@H](c2ccccc2C(F)(F)F)C1(C#N)C#N | 12.5 |
| CCn1cc(CCCC(=O)NCc2cccc(OC)c2)c2ccccc21 | 13.3 |
| O=C(c1cc(F)cc2c1OCOC2)N1CCN(c2ccc(F)cc2)CC1 | 6.06 |
| O=[N+]([O-])c1cc(Cl)cc(/C=N/NC(=S)Nc2ccc(S(=O)(=O)N3CCOCC3)cc2)c1O | 6.18 |
| Cc1cc(C)n(-c2cc(N3CCN(S(=O)(=O)c4ccc(C)c(C)c4)CC3)ccc2[N+](=O)[O-])n1 | 18 |
| Cc1nn(C(C)CC(=O)O)c(C)c1C (centres unmarked) | 10.3 |

— article PMC4336329 (PLoS ONE, 2015)
